The list shows a part of the results. Most values come without repeats; read them as rough.
What follows are compounds tested on G361 (assay: cell count relative to DMSO control; melanoma cells; higher = more viable cells). Details: library dose: standard library concentration; 72 h.
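Also: cells treated in 1,536-well plates, then fixed and DAPI-stained, with nuclei counted from automated high-throughput microscope images.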

Structure (SMILES)	cell count [%]
CCCCCCCCc1ccc(CCC(N)(CO)CO)cc1 [fingolimod] + CCN(CC)CCCCNc1ncc2cc(-c3cc(OC)cc(OC)c3)c(NC(=O)NC(C)(C)C)nc2n1 [PD173074] (first compound 10 µM, partner dose 0.5 µM)	42.5
NC(=O)c1ccc(N(C(N)=O)c2c(F)cccc2F)nc1-c1ccc(F)cc1F + CCCCCCCCCCCC1=C(O)C(=O)C=C(O)C1=O [Embelin] (first compound 2 µM, partner dose 6 µM)	70.3
CCCCCCCCc1ccc(CCC(N)(CO)CO)cc1 [fingolimod] + O=C(Nc1ccccc1)c1cc([N+](=O)[O-])ccc1Cl [GW9662] (first compound 10 µM, partner dose 10 µM)	0.176
NC(=O)c1ccc(N(C(N)=O)c2c(F)cccc2F)nc1-c1ccc(F)cc1F + Cn1cc(/C=C2\C(=O)Nc3cccnc32)c2ccccc21 [GW441756] (first compound 2 µM, partner dose 2 µM)	107

The compounds below were run on IPC-298 in the same assay as above. Details: library dose: standard library concentration; 72 h.

Structure (SMILES)	cell count [%]
NC(=O)c1ccc(N(C(N)=O)c2c(F)cccc2F)nc1-c1ccc(F)cc1F + O=C1NC(=O)/C(=C/c2ccc(-c3ccc(F)cc3O)o2)S1 [AS252424] (first compound 2 µM, partner dose 5 µM)	87.3
NC(=O)c1ccc(N(C(N)=O)c2c(F)cccc2F)nc1-c1ccc(F)cc1F + COc1ccc(COc2ccc(Cc3cnc(N)nc3N)cc2OC)cc1 [GW2580] (first compound 2 µM, partner dose 5 µM)	110
NC(=O)c1ccc(N(C(N)=O)c2c(F)cccc2F)nc1-c1ccc(F)cc1F + O=C(O)C(=O)Nc1sc2c(c1C(=O)O)CCNC2 [TCS401] (first compound 2 µM, partner dose 8.33333 µM)	110
CC(C)(C)c1cnc(CSc2cnc(NC(=O)C3CCNCC3)s2)o1 + CC(C)CCN1c2nc(Nc3cc(F)c(O)c(F)c3)ncc2N(C)C(=O)C1C [BID1870] (first compound 0.05 µM, partner dose 1 µM)	79.8
COc1cc2c(Oc3ccc4[nH]c(C)cc4c3F)ncnc2cc1OCCCN1CCCC1 [cediranib] + COc1ccc(-c2ccc3c(N4CCOCC4)nc(N4C[C@@H](C)O[C@@H](C)C4)nc3n2)cc1CO [KU0063794] (first compound 2 µM, partner dose 0.1 µM)	81.7
CCc1ccc(CCOc2ccc(CC3SC(=O)NC3=O)cc2)nc1 (stereo not given) [pioglitazone] + Cn1cc(/C=C2\C(=O)Nc3cccnc32)c2ccccc21 [GW441756] (first compound 10 µM, partner dose 2 µM)	85.2
NC(=O)c1ccc(N(C(N)=O)c2c(F)cccc2F)nc1-c1ccc(F)cc1F + O=c1cc(-c2cccc3c2Sc2ccccc2S3)oc(N2CCOCC2)c1 [KU55933] (first compound 2 µM, partner dose 5 µM)	90.7
CN(NC(=O)CC(=O)NN(C)C(=S)c1ccccc1)C(=S)c1ccccc1 + CCc1ccc(CCOc2ccc(CC3SC(=O)NC3=O)cc2)nc1 [pioglitazone] (first compound 0.03 µM, partner dose 10 µM)	78.5
NC(=O)c1ccc(N(C(N)=O)c2c(F)cccc2F)nc1-c1ccc(F)cc1F + c1cc(-c2cnn3cc(-c4ccc(OCCN5CCCCC5)cc4)cnc23)ccn1 [Dorsomorphin] (first compound 2 µM, partner dose 2 µM)	80.1
Cc1ccc(NC(=O)c2cccc(N(C)C)c2)cc1NC(=O)c1ccc(O)cc1 + COc1ccc(-c2ccc3c(N4CCOCC4)nc(N4C[C@@H](C)O[C@@H](C)C4)nc3n2)cc1CO [KU0063794] (first compound 10 µM, partner dose 0.1 µM)	87.9
NC(=O)c1ccc(N(C(N)=O)c2c(F)cccc2F)nc1-c1ccc(F)cc1F + CCN(CC)CCCCNc1ncc2cc(-c3cc(OC)cc(OC)c3)c(NC(=O)NC(C)(C)C)nc2n1 [PD173074] (first compound 2 µM, partner dose 0.5 µM)	123
CCCCCCCCc1ccc(CCC(N)(CO)CO)cc1 [fingolimod] + Oc1nc(-c2ccc(C(F)(F)F)cc2)nc2c1CSCC2 [XAV939] (first compound 10 µM, partner dose 10 µM)	76.7
NC(=O)c1ccc(N(C(N)=O)c2c(F)cccc2F)nc1-c1ccc(F)cc1F + COc1cc2ncnc(Nc3ccc(Oc4ccccc4)cc3)c2cc1OC [SrcI1] (first compound 2 µM, partner dose 10 µM)	65
CCCCCCCCc1ccc(CCC(N)(CO)CO)cc1 [fingolimod] + Oc1cc(-c2nc(-c3ccccc3)[nH]c2-c2ccncc2)ccc1Cl [L779450] (first compound 10 µM, partner dose 1 µM)	33.1
NC(=O)c1ccc(N(C(N)=O)c2c(F)cccc2F)nc1-c1ccc(F)cc1F + Oc1cc(-c2nc(-c3ccccc3)[nH]c2-c2ccncc2)ccc1Cl [L779450] (first compound 2 µM, partner dose 1 µM)	79.7
COc1cc2c(Oc3ccc4[nH]c(C)cc4c3F)ncnc2cc1OCCCN1CCCC1 [cediranib] + COC(=O)c1sccc1S(=O)(=O)Nc1ccc(Nc2ccccc2)cc1OC [GSK0660] (first compound 2 µM, partner dose 5 µM)	86.3

Structure (SMILES)	cell count [%]
NC(=O)c1ccc(N(C(N)=O)c2c(F)cccc2F)nc1-c1ccc(F)cc1F + Cc1cc([N+](=O)[O-])ccc1NS(=O)(=O)c1cc(Cl)ccc1Cl [FH535] (first compound 2 µM, partner dose 5 µM)	53.8
Cc1ccc(NC(=O)c2cccc(N(C)C)c2)cc1NC(=O)c1ccc(O)cc1 + N#Cc1c(O)c2c(-c3ccc(-c4ccccc4O)cc3)csc2[nH]c1=O [A769662] (first compound 10 µM, partner dose 10 µM)	90.8
NC(=O)c1ccc(N(C(N)=O)c2c(F)cccc2F)nc1-c1ccc(F)cc1F + COc1cc(N2CCC(N3CCN(C)CC3)CC2)ccc1Nc1ncc(Cl)c(Nc2ccccc2S(=O)(=O)C(C)C)n1 [NVP-TAE684] (first compound 2 µM, partner dose 0.4 µM)	93.3
CCc1ccc(CCOc2ccc(CC3SC(=O)NC3=O)cc2)nc1 (stereo not given) [pioglitazone] + COc1ccc2c(c1)CCC1C2CCC2(C)C(NCCCCCCN3C(=O)C=CC3=O)CCC12 [U73122] (first compound 10 µM, partner dose 2 µM)	85.2
NC(=O)c1ccc(N(C(N)=O)c2c(F)cccc2F)nc1-c1ccc(F)cc1F + COc1ccc2c(c1)CCC1C2CCC2(C)C(NCCCCCCN3C(=O)C=CC3=O)CCC12 [U73122] (first compound 2 µM, partner dose 2 µM)	92.8
NC(=O)c1ccc(N(C(N)=O)c2c(F)cccc2F)nc1-c1ccc(F)cc1F + O=S(=O)(c1ccccc1)N(CC(F)(F)F)c1ccc(C(O)(C(F)(F)F)C(F)(F)F)cc1 [T0901317] (first compound 2 µM, partner dose 7 µM)	84.5
CCCCCCCCc1ccc(CCC(N)(CO)CO)cc1 [fingolimod] + Cc1cc([N+](=O)[O-])ccc1NS(=O)(=O)c1cc(Cl)ccc1Cl [FH535] (first compound 10 µM, partner dose 5 µM)	49.1
CCCCCCCCc1ccc(CCC(N)(CO)CO)cc1 [fingolimod] + COc1ccc2c(c1)CCC1C2CCC2(C)C(NCCCCCCN3C(=O)C=CC3=O)CCC12 [U73122] (first compound 10 µM, partner dose 2 µM)	71.3
NC(=O)c1ccc(N(C(N)=O)c2c(F)cccc2F)nc1-c1ccc(F)cc1F + COC(=O)c1sccc1S(=O)(=O)Nc1ccc(Nc2ccccc2)cc1OC [GSK0660] (first compound 2 µM, partner dose 5 µM)	85.2
CCCCCCCCc1ccc(CCC(N)(CO)CO)cc1 [fingolimod] + Cc1cc(Nc2cc(N3CCN(C)CC3)nc(/C=C/c3ccccc3)n2)n[nH]1 [ENMD2076] (first compound 10 µM, partner dose 0.2 µM)	55.9
NC(=O)c1ccc(N(C(N)=O)c2c(F)cccc2F)nc1-c1ccc(F)cc1F + COc1ccc(-c2ccc3c(N4CCOCC4)nc(N4C[C@@H](C)O[C@@H](C)C4)nc3n2)cc1CO [KU0063794] (first compound 2 µM, partner dose 0.1 µM)	81
CCCCCCCCc1ccc(CCC(N)(CO)CO)cc1 [fingolimod] + O=S(=O)(c1ccccc1)N(CC(F)(F)F)c1ccc(C(O)(C(F)(F)F)C(F)(F)F)cc1 [T0901317] (first compound 10 µM, partner dose 7 µM)	66.7
CCCCCCCCc1ccc(CCC(N)(CO)CO)cc1 [fingolimod] + c1cc(-c2cnn3cc(-c4ccc(OCCN5CCCCC5)cc4)cnc23)ccn1 [Dorsomorphin] (first compound 10 µM, partner dose 2 µM)	55.9
CC(C)(C)c1cnc(CSc2cnc(NC(=O)C3CCNCC3)s2)o1 + NCC(=O)Nc1ccc(-n2nc(C(F)(F)F)cc2-c2ccc3c(ccc4ccccc43)c2)cc1 [OSU03012] (first compound 0.05 µM, partner dose 5 µM)	62.8
NC(=O)c1ccc(N(C(N)=O)c2c(F)cccc2F)nc1-c1ccc(F)cc1F + O=C(Nc1ccccc1)c1cc([N+](=O)[O-])ccc1Cl [GW9662] (first compound 2 µM, partner dose 10 µM)	97.1

Reference: the supplement of paper PMC4604168 (melanoma cell lines)
